In publication PMC6555833, “APC/C^CDH1 synchronizes ribose-5-phosphate levels and DNA synthesis to cell cycle progression” (Nature Communications, 2019):
Results are given in words; binding and its absence hold for the method and conditions named.

Assays:
[1] = target: purified recombinant TKTL1 (human) (UniProt P51854); test: SEC; Superdex 200 in cold PBS (4 °C), 0.4 mL/min; fractions analysed by western blot; markers MSH6 (152 kDa) and BSA (66 kDa); heterodimer purified beforehand by nickel resin then FLAG beads; both purified
[2] = target: purified recombinant TKTL1 (human) (UniProt P51854); test: native gel or EMSA; native gel electrophoresis of TKT, TKTL1-TKT and TKTL1; both purified

binding [1]: no binding
binding [2]: no binding
B1: purified recombinant TKTL1 (natural protein, human, UniProt P51854 1-596, looked up)
chain: MADAEARAEFPEEARPDRGTLQVLQDMASRLRIHSIRATCSTSSGHPTSCSSSSEIMSVLFFYIMRYKQSDPENPDNDRFVLAKRLSFVDVATGWLGQGLGVACGMAYTGKYFDRASYRVFCLMSDGESSEGSVWEAMAFASYYSLDNLVAIFDVNRLGHSGALPAEHCINIYQRRCEAFGWNTYVVDGRDVEALCQVFWQASQVKHKPTAVVAKTFKGRGTPSIEDAESWHAKPMPRERADAIIKLIESQIQTSRNLDPQPPIEDSPEVNITDVRMTSPPDYRVGDKIATRKACGLALAKLGYANNRVVVLDGDTRYSTFSEIFNKEYPERFIECFMAEQNMVSVALGCASRGRTIAFASTFAAFLTRAFDHIRIGGLAESNINIIGSHCGVSVGDDGASQMALEDIAMFRTIPKCTIFYPTDAVSTEHAVALAANAKGMCFIRTTRPETMVIYTPQERFEIGQAKVLRHCVSDKVTVIGAGITVYEALAAADELSKQDIFIRVIDLFTIKPLDVATIVSSAKATEGRIITVEDHYPQGGIGEAVCAAVSMDPDIQVHSLAVSGVPQSGKSEELLDMYGISARHIIVAVKCMLLN
notes: wild-type transketolase-like protein 1 (TKTL1), human; in vector pSJ3; also called TKTL1 monomer; source: E. coli BL21 (DE3)pLysS, purified (nickel column)
